From the supplement of paper PMC11417369
This is one part of the list.

These sequences were tested on PfHDP1 homeodomain (GST-tagged) (assay: gcPBM binding intensity (ln(normalized median fluorescence intensity)); higher = stronger DNA binding).
How it was run: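 DNA-binding domains from P. falciparum, fused to GST and produced in E. coli, were put on an Agilent 4 × 180k double-stranded probe array for 1 h in 1× PBS holding 1% milk, 0.2 mg/ml BSA, 0.5% salmon testes DNA and 0.03% Triton X-100. Probes were primer-extended, 36 bp long and drawn from intergenic genomic regions, with negative controls included. After Alexa488 anti-GST antibody detection and a 488 nm scan, binding intensity was set as the highest Masliner-normalised natural-log median intensity across replicate spots of either probe orientation.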

| Sequence | gcPBM binding intensity (ln) |
| --- | --- |
| GATAAATCATATATAACACACATATGAATATTACAA [CACACA_site1321] | 6.31 |
| AAAAGAAACTTATTTACGCACACTTTATTGCATGTT [CACACA_site3887] | 6.97 |
| TAAGATATATTTTTTTGTACACATAATAAAATAATA [XGTACX_site8938] | 6.32 |
| GTAATTTTGAGATGATGTACATATTTTTTCCTTGTC [XGTACX_site4103] | 6.39 |
| TATATATTATCAAGTGGACACACGAAAAAAAGGAAA [CACACA_site3741] | 6.95 |
| TAAAGATTGTTCAGTGCATGTTGGCCTGTAAATGGA [TGCATGCA_site315] | 7.37 |
| TTTTTCATATTATACTTTTATATACATATATAAAAA [XGTACX_negctrl_site281] | 6.49 |
| ATAATGTAGAACTAGAGTACATAAAAAAATAAACAT [XGTACX_site5205] | 7.17 |
| GCTACACAATTTTTTAGTACACACATATAAATATAT [XGTACX_site3131] | 7.27 |
| TTTTTTTTTTTTTTTTTTTGTCTTATATATTACGGA [CACACA_negctrl_site322] | 6.2 |
| TATATGCACTTAATATGTACACAAAAAAAAAAAAAA [XGTACX_site6199] | 9.79 |
| CTTATATTAAAAACTTGTACACATGTTAAGAATTTT [XGTACX_site5857] | 6.24 |
| TTTATATATTATACATGTACATATTTATTTATATAA [XGTACX_site3474] | 6.51 |
| AAAAAAAAAAAATCATGTACTTATTTTTCATTGTTG [XGTACX_site1542] | 6.03 |
| AAATAAGCATATACAAACATGCATACATATAAATAA [CACACA_negctrl_site246] | 6.43 |
| AGTATAAAAATAAGCACACACACAAATATATATTTA [CACACA_site923] | 7.08 |
| ATAATATAAATATTAACACACATCCTTTTATGTATA [CACACA_site6685] | 6.27 |
| TTTCTTCTGCATTATGCACACTATAATTCGTTAAAA [CACACA_site5568] | 10.5 |
| TTTTCTTTTACAAAGGGTACATAATTTAAATTCATA [XGTACX_site3876] | 6.32 |
| ATTATATTCCAAGTTTGTACATATATATAAAAGTAT [XGTACX_site1631] | 6.63 |
| ATACATATATATATTCTACACACTTATAATATAATA [CACACA_site8782] | 7.03 |
| GTAAAAGTTAAAAAAACATGCAAAATTTAAAAAAAA [TGCATGCA_site637] | 6.62 |

| Sequence | gcPBM binding intensity (ln) |
| --- | --- |
| ACTATATTTGCCCTTTTAATCAGAACAAAAAAAAAA [CACACA_negctrl_site1051] | 6.31 |
| CTATAAATAACAGAAAGTACATATACATGGATATAT [XGTACX_site3317] | 6.46 |
| TAAAAGAAATAAGGTGCACACATATACATATATATA [CACACA_site8037] | 9.46 |
| TTTCTAAATGTTTATATATATATATATATATAAATA [GTGCAC_negctrl_site397] | 6.97 |
| AATATATCAAAAATTGGATAGTTTCTTATAAAAAAT [CACACA_negctrl_site39] | 6 |
| TTCTTTTCAGAAGGAAAGAATTATAACATATCATAA [XGTACX_negctrl_site548] | 6.13 |
| ATATTATGTGAAGAACGTACAAATTTTTACACTATA [XGTACX_site1485] | 6.79 |
| TATTTTGCTCATCCATGTACACATAGATATATTTTA [XGTACX_site8244] | 9.23 |
| TTACAAAACACTTATACACACATATAAATATAAATA [CACACA_site7307] | 6.78 |
| CTCCTCATATAATTTTGTACATAAAAAATTACCATT [XGTACX_site3879] | 6.8 |
| TGTTATATATATTGACTTAATAAATAAATAAATATA [GTGCAC_negctrl_site590] | 5.89 |
| ATTAATATATAACGTGCACACACACCGTTACGTATG [CACACA_site8543] | 9.1 |
| ATATATTTTAAAGAAAGTACCCACCGTTTGAAGTCA [XGTACX_site2273] | 6.73 |
| TCTTATTTTATAAATATAAATATATATATATATATA [GTGCAC_negctrl_site479] | 9.14 |
| TATTTTATAATTTACCGTACATTAATTGTATTATTA [XGTACX_site5722] | 6.35 |
| ATATATTTTATATGTGTGCACTATATATATATATAT | 10.8 |
| AAAAAAAAAAAAAAAAAAAAAAATATATATATATTT [GTGCAC_negctrl_site502] | 7.07 |
| CCCCTTAATTTATTTTGTACATATAATTTTTTTTTT [XGTACX_site3270] | 6.52 |
| ATTAATCAATATAGGCGTACAAAAAAAATAAATTAT [XGTACX_site1513] | 6.92 |
| CTTGTATATAAACACACACACACTTTCTTTTTTTAA [CACACA_site8602] | 6.81 |
| ACAAAAATAAGCAAATGTACATATGTATAATATATT [XGTACX_site2492] | 6.77 |
| GTATTTTTAAATGACACACACATATATAAATATGTA [CACACA_site6880] | 6.42 |
